Publication PMC5018250, “Structure of the Bacterial Sex F Pilus Reveals an Assembly of a Stoichiometric Protein-Phospholipid Complex” (Cell, 2016)

Molecular target: the molecule itself
Test: cryo-EM structure; purified pED208 pili in PBS pH 7.4, vitrified; helical reconstruction (IHRSR), C5 point group symmetry, 3.6 A map; 28.2 degrees and rise 12.1 A between adjacent subunits

B1: pED208 TraA pilin (natural protein)
chain: TDLLAGGKDDVKATFGADSFVMMCIIIAELIVGVAMYIRTKNLLILLGLVVVIVFTTVGLTFIK
notes: Stands in the pilus as a helical polymer (five-start helix, or stacked pentamer layers); also called pED208 pilin; pED208 pilus subunit
B1: binds.
